# The list shows a part of the results.
# B1: chr19:13097725:13097826:+|3pUTR|ENSG00000008441|msi1|total|mutant (ssRNA)
# RNA: GGGAGUUCUACAGUCCGACGAUCUGAGCCAGACGCCAACUUGACCCUCACCAGCAUUAUCAGGAGCGCGCUCAGCAAGUUGGCCGUUUCCUCCCCCCUUUCCCGGCGCCCCUCCCGCCCCCAUUCAACAUCUCUCAUCCUAUCCAACAGAGGAUUGAGCAUCA
# B2: chr7:44624349:44624495:+|CDS|ENSG00000105953|unk|total|mutant (ssRNA)
# RNA: GGGAGUUCUACAGUCCGACGAUCAGGCCAUUGACGGCUUCCCAGACUGUUAAGACAUUUUCACAAAACAGACCAGCAGCAGCCCGGACAUUUCAACAGAUUCGGUGCUAUUCUGCACCUGUUGCUGCUGAGCCCUUUCUCAGUCAACAGAGGAUUGAGCAUCA
# B3: chr1:225491636:225491737:-|3pUTR|ENSG00000154380|msi1|total|mutant (ssRNA)
# RNA: GGGAGUUCUACAGUCCGACGAUCGUACUUUGAAUUCCACCGGAAAAAGCACUCAGAAGAAAAAGUCUACAUUGGCCCGUGUUCCGAUUGAGAGUUAAUUUUCCCAUCAAGUCCAAAAGUUUCCAUCCAAGUCUACCGAAACUGCAACAGAGGAUUGAGCAUCA
# B4: chr1:24840999:24841100:+|3pUTR|ENSG00000169504|msi1|total|mutant (ssRNA)
# RNA: GGGAGUUCUACAGUCCGACGAUCGCUACUCCUUCCUGCCGAGCAGAAAUUGUAUUUUGCACGAACAUGCAGUUAUUGAAGAUCCGGAUCAAGGACCGACAAGGUACCGCCGUUAUCUUAAAAUAUACACUCCUAAGCAGUAUUCAACAGAGGAUUGAGCAUCA
# B5: chr3:10940499:10940600:+|3pUTR|ENSG00000132164|unk|FALSE|unique (ssRNA)
# RNA: GGGAGUUCUACAGUCCGACGAUCGGGGAGGGCAAUGUGGGGGCAGGGGAACAUGUCAUUGUGAUGACUUUUUUGAUAUUCAUUAGAAACAAUACAUCCUUUCUGAGAUAUUUACAGUAUUAUUAAAAAAUGAAAAAGGUUGUACAACAGAGGAUUGAGCAUCA
# B6: chr1:62648186:62648303:-|CDS|ENSG00000116641|unk|FALSE|unique (ssRNA)
# RNA: GGGAGUUCUACAGUCCGACGAUCGAUGACCUUAAAAGACGUUCAAUGUCAAUAGAUGAUACCCCAAGGGGUAGCUGGGCCUGUAGUAUCUUUGACUUGAAAAAUUCACUUCCUGAUGCUUUGCUUCCCAAUUUACUUGAUCGACAACAGAGGAUUGAGCAUCA
# B7: ENSG00000164929:stop:overlap|stop_codon|ENSG00000164929|stop_codon|NA|stop_codon (ssRNA)
# RNA: GGGAGUUCUACAGUCCGACGAUCUAACAGAUAGCAUCCAACAGAUGGACAGAAGUCGAAGAAUCACAAAGAACUGUGUCAACUAGCAGAGAGUCCAAGCAGAAGGGCAGAUGGACUUCUUCAGUGUCCUUCACGGCACUGGAUCAACAGAGGAUUGAGCAUCA
# B8: chr6:105098323:105098438:-|3pUTR|ENSG00000112276|msi1|total|mutant (ssRNA)
# RNA: GGGAGUUCUACAGUCCGACGAUCUAUCAGUGUCUCAAUGUGAAGAUUGUAACCUCAAGAUCCGGAAUCUUAAAAGAGCCACUCCGCCUGAAUGGGAAACGUGAGACUAUUUUUAAACACACACCUCUAAGGAAGAAGCCUCCCCAACAGAGGAUUGAGCAUCA
# B9: chr8:143915506:143915607:-|3pUTR|ENSG00000178209|msi1|FALSE|unique (ssRNA)
# RNA: GGGAGUUCUACAGUCCGACGAUCCCCCACACUCACUCCUGAGACCCCUGGCCUCCGGCGUCAGCCUCCAGCCUCUGUUCCCCUAGUAAGUGCCUUCCAUGUCGGCCUCUAACCCCAGGCCCCGAGGACCCAGACCCAGUGGGGCAACAGAGGAUUGAGCAUCA
# B10: chr15:64957256:64957357:+|3pUTR|ENSG00000166839|msi1|total|mutant (ssRNA)
# RNA: GGGAGUUCUACAGUCCGACGAUCGCUGGAAAAUUGAAACAUAAUUUCACAAUUAUUCCUUUUUCCACCUUAAAUAAUAAGAGCCGAAUACUUUCUGUGUUUUUAUCUUAUACACAUGAAUAAAUGCUAUGGCUUAUCACAGUUCAACAGAGGAUUGAGCAUCA
# B11: chr4:2179307:2179465:-|CDS|ENSG00000130997|control|control|control (ssRNA)
# RNA: GGGAGUUCUACAGUCCGACGAUCCAGAAUUGCUGCAUGGCUUAUAGAUCCUAGUGAUGCCACACCCUCUUUUGAAGAUUUAGUAGAAAAAUACUGUGAAAAAUCCAUUACAGUUAAAGUGAACAGCACAUAUGGAAAUUCCUCCAACAGAGGAUUGAGCAUCA
# B12: ENSG00000110492:stop:overlap|stop_codon|ENSG00000110492|stop_codon|NA|stop_codon (ssRNA)
# RNA: GGGAGUUCUACAGUCCGACGAUCAGCCCUGCACCCCCAAGACCAAAGCAAAGGCCAAAGCCAAGAAAGGGAAGGGAAAGGACUAGACGCCAAGCCUGGAUGCCAAGGAGCCCCUGGUGUCACAUGGGGCCUGGCCCACGCCCUCAACAGAGGAUUGAGCAUCA
# B13: chr4:73571549:73576234:-|three_prime_utr|ENSG00000169435|control|control|control (ssRNA)
# RNA: GGGAGUUCUACAGUCCGACGAUCUUGAUGAAUGCAUAAGUUCUGUACUUGCAUUUAUACGAACAUAUAUGAGACUUGAAUCGUAGAAAAUUGAAUGUCAAAAAAAGCUCAUUUCUUUUUGAAGUGAUGAGGUUAAUUAGGGUUCAACAGAGGAUUGAGCAUCA
# B14: chr20:5938399:5938502:-|3pUTR|ENSG00000089195|unk|total|mutant (ssRNA)
# RNA: GGGAGUUCUACAGUCCGACGAUCGUCUGACUCUUAACCCUUUUGAGAAUUGCUCUGAAUUUUGUUCUCAGGCAUUAUACAGUCCGUAAUUAAACUUUAAAUGCCAUUACUACUUGUUUUUUCAUAUCCCAAGAAUAAGAACAUCAACAGAGGAUUGAGCAUCA
# B15: chr15:40903593:40903694:+|3pUTR|ENSG00000104142|msi1|total|mutant (ssRNA)
# RNA: GGGAGUUCUACAGUCCGACGAUCCAGCCGAGGCCCUUCACCUGGAGAAGUCAGAAAUCUGACCCAAUUCCACCCCCUGCCUCCCGCACCUCUUCUGUCCCUGUCAUUCCCCACACACGUCCUGUUCACCUCGAGAGAGAGAGACAACAGAGGAUUGAGCAUCA
# B16: ENSG00000118515:stop:overlap|stop_codon|ENSG00000118515|stop_codon|NA|stop_codon (ssRNA)
# RNA: GGGAGUUCUACAGUCCGACGAUCCUUCUGAGGAAGACCUAGAAUUGUGGUCUUUGUUAGCUCAUUAUGUUAUUUUUUUAAAGUAGGCUUUAUAUUUUAGAGCAGCUUUAAGUUCACAGCAACAUUGAGCAGAAGGUACAGAGACAACAGAGGAUUGAGCAUCA
# B17: chr9:34635388:34635489:-|3pUTR|ENSG00000147955|msi1|FALSE|unique (ssRNA)
# RNA: GGGAGUUCUACAGUCCGACGAUCGGGAUAUCCAUGCUUAUGUAUCCAAACACAGAGACCCAUGGGAACAAAUGAGACACAUAUAGAUACUGAGACCUGUGUGUACAGUAGGACCAUGCACUCACACCCAUCUGGAGAGGGAGCCAACAGAGGAUUGAGCAUCA
# B18: chr13:29511929:29512034:-|3pUTR|ENSG00000139514|msi1_unk|total|mutant (ssRNA)
# RNA: GGGAGUUCUACAGUCCGACGAUCUAUCAUAUCCCUCAUUUCUUUCCCUGAAAUAAAAAUACACACAAGCAAAAAAAAAAUGACCGUUUCACAUCUCUCCGUUCCCUUGCCCAAACAAGAAUAUUCUCCGUUCCACUGGCCAGGCAACAGAGGAUUGAGCAUCA
# B19: chr8:133458587:133458688:-|3pUTR|ENSG00000008513|msi1|total|mutant (ssRNA)
# RNA: GGGAGUUCUACAGUCCGACGAUCAUGAAACAAAAGCCCUUACUUGGGAAAAGGGACCCCCACCAGCGGCCCUGCUUGCUCCGCCGCUGGGAACAUCUUUUCUGGUUUCCUGAGCCAGCACCUGAAUUGCAACGAAGCUCUGAGCAACAGAGGAUUGAGCAUCA
# B20: chr1:83882962:83883136:-|CDS|ENSG00000137941|control|control|control (ssRNA)
# RNA: GGGAGUUCUACAGUCCGACGAUCGACUCCUUUGCAGCUCCAGUGUUGCCAGCGCCUAGUGGAGCUUUGUAAACAGUGCCUGCUAGUGGUUUACAAAUAUGCAACUGACAAAAGAGGAUCACUUUCAGGCAUUGGUCCUGACUGCAACAGAGGAUUGAGCAUCA
# B21: chr19:45712844:45712945:-|CDS|ENSG00000177051|unk|total|mutant (ssRNA)
# RNA: GGGAGUUCUACAGUCCGACGAUCGGAACAGCGGGCAGCCCUGGCCCUGCAGAGCUACCCACGACCGACCACCCCAGCGCCUGCCGUCUUUGUGUCCGCCGAGCAAGGUGGACCGGCCAAGGGGGUGGGAUCUGAACGGCGGUCCAACAGAGGAUUGAGCAUCA
# B22: chr4:145760401:145760502:-|3pUTR|ENSG00000151612|unk|total|mutant (ssRNA)
# RNA: GGGAGUUCUACAGUCCGACGAUCUCCGUACUUUUCUCUGAAAGGAAUCUUGUCUUGUUAAACCCUAAAGAGAGUGUCCUUAACCGCAAUCAGCACUUGUAAGCUUAUAUACUGGUGCAUUUGGUUUUCUGUUGGGUGAAUGCGCAACAGAGGAUUGAGCAUCA
# Target: T1, UNK ZnF1-6 (called full-length) (human, UniProt Q9C0B0 30-357)
# T1 sequence: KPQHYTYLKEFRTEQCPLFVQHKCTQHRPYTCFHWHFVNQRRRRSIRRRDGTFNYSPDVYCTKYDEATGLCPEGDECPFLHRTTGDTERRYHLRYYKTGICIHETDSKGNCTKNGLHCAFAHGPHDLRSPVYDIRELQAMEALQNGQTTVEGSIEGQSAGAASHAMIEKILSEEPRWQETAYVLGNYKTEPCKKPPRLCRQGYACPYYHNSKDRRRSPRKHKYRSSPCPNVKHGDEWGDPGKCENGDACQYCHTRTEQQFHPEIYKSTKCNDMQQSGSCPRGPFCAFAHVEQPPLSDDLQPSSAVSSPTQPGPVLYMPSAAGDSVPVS
# Test: nsRBNS (natural sequence RNA bind-n-seq); RBNS binding buffer (assumed for nsRBNS): 25 mM Tris pH 7.5, 150 mM KCl, 3 mM MgCl2, 0.01% Triton X-100, 500 ug/ml BSA, 20 U/ml SUPERase-In, 4 C; UNK is unkempt and MSI1 is Musashi-1; names of the RNAs are library labels; protein concentration not given here; high values mean tight binding
row,Binder,binding signal [enrichment R]
1,B1,0.936
2,B2,0.451
3,B3,0.457
4,B4,0.531
5,B5,1.27
6,B6,0.414
7,B7,0.422
8,B8,0.46
9,B9,0.769
10,B10,0.676
11,B11,0.647
12,B12,0.725
13,B13,0.592
14,B14,0.964
15,B15,0.801
16,B16,1.11
17,B17,0.761
18,B18,0.604
19,B19,0.484
20,B20,0.655
21,B21,0.519
22,B22,0.276

# Source: PMC12136788
